Here are results for five compounds from PubChem BioAssay AID1963967 (Molecular Pharmacology Branch, DTP, NCI, 2024).

Some entries of the source have several records that differ or are many. The list is limited to them. There may be further records. The values listed for one entry are repeats in other runs, samples, wells, individuals or studies. Signs of the kind (2×) give the number of equal values in this list.

For this experiment, the system named is 855422-203-R-J1-PDC spheroids with HUVEC/MSC, viability. As to the kind of experiment: Anticancer human tumor 855422-203-R-J1-PDC patient-derived bladder carcinoma cell line growth inhibition [PI3K]. Conditions: stronger effect = lower value. From the text: Combinatorial screen of targeted agents with the PI3K inhibitors inavolisib, alpelisib, duvelisib, and copanlisib in multi-cell type tumor spheroids
A high-throughput screen of multi-cell type tumor spheroids was designed to identify active combinations of targeted small molecules and PI3K pathway inhibitors. Complex spheroids include a stromal component modeled by human endothelial cells (HUVEC) and fibroblasts modeled by human mesenchymal stem cells (MSCs). The concentration ranges selected for each drug and investigational agent were based upon clinically achievable concentrations if the clinical Cmax of the agent was known.
Compounds. The drugs and investigational agents: inavolisib (NSC800729), alpelisib (NSC765974), duvelisib (NSC772469), copanlisib (NSC816437), ipatasertib (NSC767898), afuresertib (NSC778305), talazoparib (NSC767125), sapanisertib (NSC764658), selumetinib (NSC741078), tovorafenib (DAY101, NSC766906), vemurafenib (NSC761431), ravoxertinib (NSC781343), sotorasib (NSC818433), MRTX1133 (NSC 836407), abemaciclib (NSC 768073), palbociclib (NSC758247), venetoclax (NSC 766270), SY5609 (NSC837396), enzalutamide (NSC755605), and darolutamide (NSC825331), were obtained from the National Cancer Institute (NCI) Developmental Therapeutics Program Chemical Repository. The FDA-approved anticancer drug set is available from the NCI Developmental Therapeutics Program. […] The stock solutions were prepared in dimethyl sulfoxide (DMSO, Sigma-Aldrich, St. Louis, MO, cat. D2650) at 800-fold the tested concentration and stored at -70 degrees C prior to their use. All drugs and investigational agents were tested over a range starting from a high concentration at or near the clinical Cmax and decreasing in half-log increments. If the clinical Cmax for an agent had not been determined, the highest concentration tested was 10 microM.
Cell Culture. All cells were maintained in an incubator at 37 degrees C and 5% CO2 with 95% humidity. The PDC lines were cultured according to standard operating procedures established by the NCI PDMR (https://pdmr.cancer.gov/sops/default.htm). All PDCs were thawed and cultured in Matrigel-coated flasks prepared with a working solution of 1X Ham's F-12 nutrient mix, without supplementation (Invitrogen, Waltham, MA, cat. 11765054), 100 U/mL penicillin-streptomycin (Invitrogen, cat. 15140122), and 2.5% Matrigel (Corning Inc., Corning, NY, cat. 354248) for the first three passages. The 354836-022-R-J1-PDC, 475296-252-R-J1-PDC, and 997726-040-R-J2-PDC lines were cultured in 6A media, which includes advanced DMEM/F-12 (Thermo Fisher Scientific, cat. 12634028), 10 mM HEPES (Thermo Fisher Scientific, cat. 15630080), 1X GlutaMAX supplement (Thermo Fisher Scientific, cat. 35050061), 0.1 mg/mL primocin (InvivoGen, San Diego, CA, cat. ant-pm-2), 10% defined fetal bovine serum, heat inactivated (HyClone Laboratories Inc., Logan, UT, cat. SH30070.03HI), 50% L-WRN conditioned media (ATCC, cat. CRL-3276), 1.25 mM N-Acetyl-L-cysteine (Sigma-Aldrich, cat. A9165), 10 mM nicotinamide (Sigma-Aldrich, cat. N0636), 1X B-27 supplement (Thermo Fisher Scientific, cat. 17504044), 1X N-2 supplement (Thermo Fisher Scientific, cat. 17502048), and 10 microM Y-27632 dihydrochloride (Tocris Bioscience, Bristol, United Kingdom, cat. 1254). The 624824-186-R-J2-PDC line was cultured in 6C/Colon 1B media, which includes all 6A media components plus 50 ng/mL human EGF recombinant protein (Thermo Fisher Scientific, cat. PHG0311). […]
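Further: agents incubated with spheroids for one week before read-out; 100% = DMSO vehicle-treated control wells.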

Take `Cc1nc(NC(=O)N2CCCC2C(N)=O)sc1-c1ccnc(C(C)(C)C(F)(F)F)c1` (stereo unspecified): the viability, T/C (compound alone 0.1 µM) is 90.5, 97.9, 101, 88.5, 111, 68.2, 107, 106% and the viability, T/C (compound alone 0.316 µM) is 100 (2×), 87.3, 97.9, 76.2, 104, 74.2, 98.3%.

As to `C[C@@H](NC(=O)c1ncnc(N)c1Cl)c1ncc(C(=O)Nc2cc(C(F)(F)F)c(Cl)cn2)s1`, under “compound alone 1 µM”, the viability, T/C was 96.3, 82.7, 110, 97.2%.

For `CCN1CCN(Cc2ccc(Nc3ncc(F)c(-c4cc(F)c5nc(C)n(C(C)C)c5c4)n3)nc2)CC1`, the viability, T/C (compound alone 0.01 µM) is listed as 98.3, 78.5, 105, 82.9%.

For `CCCS(=O)(=O)Nc1ccc(F)c(C(=O)c2c[nH]c3ncc(-c4ccc(Cl)cc4)cc23)c1F`, the viability, T/C (compound alone 0.0316 µM) was 84.8, 111, 116, 110%.

Regarding `CC1(C)CCC(CN2CCN(c3ccc(C(=O)NS(=O)(=O)c4ccc(NCC5CCOCC5)c([N+](=O)[O-])c4)c(Oc4cnc5[nH]ccc5c4)c3)CC2)=C(c2ccc(Cl)cc2)C1`, under “compound alone 3.16 µM”, the viability, T/C was 72, 61.5, 78, 96.6%.
